Tests used:
[1] = biological target: T1, HA-p100 (UniProt Q00653 1-900); experiment: co-expression in HEK 293 cells
T1 sequence (looked up): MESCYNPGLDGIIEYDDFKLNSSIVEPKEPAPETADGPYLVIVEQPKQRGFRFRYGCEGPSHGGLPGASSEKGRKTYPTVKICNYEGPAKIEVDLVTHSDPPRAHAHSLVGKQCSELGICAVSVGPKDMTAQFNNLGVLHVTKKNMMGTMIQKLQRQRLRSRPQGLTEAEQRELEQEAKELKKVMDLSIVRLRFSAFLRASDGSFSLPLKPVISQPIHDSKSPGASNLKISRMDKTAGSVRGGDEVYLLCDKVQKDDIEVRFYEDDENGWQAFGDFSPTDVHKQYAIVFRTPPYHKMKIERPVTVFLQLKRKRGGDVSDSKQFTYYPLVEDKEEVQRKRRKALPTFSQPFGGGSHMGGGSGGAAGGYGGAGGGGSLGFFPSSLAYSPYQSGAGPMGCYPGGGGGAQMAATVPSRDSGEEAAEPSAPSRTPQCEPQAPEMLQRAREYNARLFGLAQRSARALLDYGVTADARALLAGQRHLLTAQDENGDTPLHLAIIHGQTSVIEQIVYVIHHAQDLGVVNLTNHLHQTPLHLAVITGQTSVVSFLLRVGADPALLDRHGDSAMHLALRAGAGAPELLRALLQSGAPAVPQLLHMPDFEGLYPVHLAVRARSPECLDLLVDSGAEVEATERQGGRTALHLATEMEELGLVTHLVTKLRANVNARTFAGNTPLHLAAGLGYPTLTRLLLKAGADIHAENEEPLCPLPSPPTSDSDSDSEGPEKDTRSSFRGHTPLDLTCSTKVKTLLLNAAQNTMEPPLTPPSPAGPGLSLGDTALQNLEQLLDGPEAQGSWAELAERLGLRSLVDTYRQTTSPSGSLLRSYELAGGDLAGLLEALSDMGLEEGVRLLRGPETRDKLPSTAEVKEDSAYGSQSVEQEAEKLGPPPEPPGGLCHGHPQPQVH
Method: (§1) Cell lysates were prepared using Buffer A (Beinke, S, et al. (2002) J. Biol. Chem. 277: 24162-24168). Immunoprecipitation and Western blotting of transfected proteins were carried out as described (Kabouridis, P. S., et al. 1997. EMBO J. 16:4983-4998), using the indicated antibodies.

[2] = biological target: T2, NF-κB1 p105 (Homo sapiens (Human), UniProt P19838 1-968); experiment: complex isolated with anti-TPL-2 antibody from in vitro translation with p105 in excess
T2 construct: Untagged p105 translated in vitro (cDNA of Blank et al. 1991 in pRc-CMV); also called untagged p105
T2 sequence: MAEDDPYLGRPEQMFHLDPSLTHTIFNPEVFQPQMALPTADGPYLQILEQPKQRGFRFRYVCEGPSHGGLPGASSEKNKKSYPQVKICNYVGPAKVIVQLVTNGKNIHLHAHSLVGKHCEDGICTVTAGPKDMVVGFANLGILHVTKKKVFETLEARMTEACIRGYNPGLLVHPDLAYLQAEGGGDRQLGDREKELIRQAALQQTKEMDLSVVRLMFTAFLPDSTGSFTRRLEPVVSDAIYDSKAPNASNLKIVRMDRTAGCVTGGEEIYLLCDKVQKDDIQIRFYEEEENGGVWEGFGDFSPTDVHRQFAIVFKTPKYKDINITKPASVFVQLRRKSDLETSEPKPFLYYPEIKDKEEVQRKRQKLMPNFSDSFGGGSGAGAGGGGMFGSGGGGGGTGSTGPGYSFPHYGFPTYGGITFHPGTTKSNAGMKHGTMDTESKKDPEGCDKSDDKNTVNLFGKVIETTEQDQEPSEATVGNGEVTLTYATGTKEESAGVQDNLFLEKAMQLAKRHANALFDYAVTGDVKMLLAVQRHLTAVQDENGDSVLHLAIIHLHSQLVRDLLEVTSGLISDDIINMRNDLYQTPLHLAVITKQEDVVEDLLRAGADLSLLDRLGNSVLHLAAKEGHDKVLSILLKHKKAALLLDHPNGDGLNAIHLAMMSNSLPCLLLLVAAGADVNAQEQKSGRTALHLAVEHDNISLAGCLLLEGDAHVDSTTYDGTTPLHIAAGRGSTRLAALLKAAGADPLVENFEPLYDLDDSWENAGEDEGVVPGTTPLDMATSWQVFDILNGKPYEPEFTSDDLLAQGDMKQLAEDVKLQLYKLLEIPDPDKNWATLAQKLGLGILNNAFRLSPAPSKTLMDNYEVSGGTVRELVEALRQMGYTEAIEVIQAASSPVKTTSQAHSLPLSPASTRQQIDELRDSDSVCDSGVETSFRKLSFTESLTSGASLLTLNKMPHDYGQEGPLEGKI
Method: 32 out of 68 positive clones obtained encode the IκB-like C-terminus of NF-κB1 p105 (FIG. 2a). Co-immunoprecipitation of p105 with TPL-2, synthesized together by cellfree translation, confirms that the two proteins interact at high stoichiometry (FIG. 1b). TPL-2 and p105 are synthesized together, and labeled with [³⁵S]-Met (Amersham-Pharmacia Biotech), by cell-free translation using the Promega TNT coupled rabbit reticulocyte system. Translated proteins are diluted in lysis buffer A (Salmeron, A., et al. (1996) EMBO J 15: 817-826) plus 0.1 mg/ml BSA and immunoprecipitated as described in the above-cited reference.

[3] = biological target: T3, HA-p105Δ498-541; ΔDD (Homo sapiens (Human), UniProt P19838 1-968); experiment: anti-HA co-immunoprecipitation from co-transfected 293 cells
T3 construct: limits combined from the two single deletions
T3 sequence: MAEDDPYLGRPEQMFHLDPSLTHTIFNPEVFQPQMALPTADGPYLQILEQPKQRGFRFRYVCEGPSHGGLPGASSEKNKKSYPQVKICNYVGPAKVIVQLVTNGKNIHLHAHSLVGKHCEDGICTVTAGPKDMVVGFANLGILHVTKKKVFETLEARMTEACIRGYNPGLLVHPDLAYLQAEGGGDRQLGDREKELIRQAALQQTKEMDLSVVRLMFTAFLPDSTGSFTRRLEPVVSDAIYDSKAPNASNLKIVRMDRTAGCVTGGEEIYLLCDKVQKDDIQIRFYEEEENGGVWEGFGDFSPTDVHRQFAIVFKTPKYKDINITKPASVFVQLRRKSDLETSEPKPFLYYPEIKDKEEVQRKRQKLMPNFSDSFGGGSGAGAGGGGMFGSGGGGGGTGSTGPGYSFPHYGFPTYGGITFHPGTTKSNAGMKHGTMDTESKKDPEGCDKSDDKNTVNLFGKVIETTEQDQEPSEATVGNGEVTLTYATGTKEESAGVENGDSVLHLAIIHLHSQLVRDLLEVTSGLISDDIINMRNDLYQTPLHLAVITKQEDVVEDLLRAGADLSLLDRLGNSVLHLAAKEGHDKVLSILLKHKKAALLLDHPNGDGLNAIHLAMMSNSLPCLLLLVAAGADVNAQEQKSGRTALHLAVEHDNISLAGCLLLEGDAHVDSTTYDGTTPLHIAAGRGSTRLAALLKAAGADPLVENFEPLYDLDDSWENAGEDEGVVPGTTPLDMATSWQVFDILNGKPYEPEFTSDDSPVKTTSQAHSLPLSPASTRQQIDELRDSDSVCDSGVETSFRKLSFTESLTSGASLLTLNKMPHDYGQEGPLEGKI
Method: as §1
(§2) These p105 constructs and HA-p105 constructs in which the p105 DD alone was mutated (HA-p105ΔDD and HA-p105L842A) were individually co-expressed with wild type TPL-2 in 293 cells and immunoprecipitated from cell lysates with anti-HA antibody. The extent of co-immunoprecipitation of TPL-2 was reduced by deletion or point mutation of the DD compared with wild type HA-p105. […] However, no association of TPL-2 was detected with either of the double binding site mutants. […] Thus, each of the identified binding sites makes a substantial contribution to TPL-2 association with p105 in vivo and both are required for optimal complex formation.

[4] = biological target: T4, HA-p105Δ498-541; L842A (Homo sapiens (Human), UniProt P19838 1-968); experiment: as above
T4 sequence: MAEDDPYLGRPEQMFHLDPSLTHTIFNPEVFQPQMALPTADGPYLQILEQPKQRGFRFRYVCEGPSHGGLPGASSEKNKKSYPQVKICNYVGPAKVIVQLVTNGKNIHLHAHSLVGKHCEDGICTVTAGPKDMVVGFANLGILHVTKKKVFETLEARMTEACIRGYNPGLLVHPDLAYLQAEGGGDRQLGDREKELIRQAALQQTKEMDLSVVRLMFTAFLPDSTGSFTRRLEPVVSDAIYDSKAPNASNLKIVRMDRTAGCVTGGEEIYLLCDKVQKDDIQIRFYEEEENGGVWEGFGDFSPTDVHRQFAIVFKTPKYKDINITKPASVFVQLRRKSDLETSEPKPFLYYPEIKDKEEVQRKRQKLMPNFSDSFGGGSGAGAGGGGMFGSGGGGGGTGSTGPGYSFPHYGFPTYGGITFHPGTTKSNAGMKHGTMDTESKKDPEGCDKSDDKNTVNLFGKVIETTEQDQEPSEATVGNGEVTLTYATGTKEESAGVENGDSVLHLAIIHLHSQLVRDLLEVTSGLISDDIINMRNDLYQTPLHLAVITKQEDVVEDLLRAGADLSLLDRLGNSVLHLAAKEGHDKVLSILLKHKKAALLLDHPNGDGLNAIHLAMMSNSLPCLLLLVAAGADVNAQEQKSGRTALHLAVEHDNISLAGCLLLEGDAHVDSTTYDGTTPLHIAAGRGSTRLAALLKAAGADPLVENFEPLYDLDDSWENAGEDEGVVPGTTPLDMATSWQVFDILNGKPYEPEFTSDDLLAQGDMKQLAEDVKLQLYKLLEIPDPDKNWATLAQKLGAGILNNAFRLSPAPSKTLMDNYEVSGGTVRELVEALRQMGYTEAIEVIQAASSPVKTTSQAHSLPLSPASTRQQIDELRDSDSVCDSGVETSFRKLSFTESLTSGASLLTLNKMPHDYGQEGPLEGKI
Method: as §1, §2

binding result [1]: no binding
stoichiometry of the TPL-2/p105 complex [2]: ~1 TPL-2:p105
binding result [3]: no binding
binding result [4]: no binding
B1: TPL-2 (enzyme)
chain: not shown
notes: also called full length TPL-2; wild type TPL-2

— patent US20030219427A1 (BASF AKTIENGESELLCHAFT, published 2003)
